These results are taken from the supplement of paper PMC10126150.

For the data set, the system named is ATP. Briefly: switch fluorescence ratio, 500 uM ATP over buffer (Cy3 cluster intensity, sum of 5 cycles each) (fold (ratio)); higher = stronger signal-on switching upon ATP binding; sequences stand for … in TCGTCGGCAGCGTCAGATGTGTATAAGAGACAGTTTTTTTTTTTTTTTTTTTTTTTTT…TC. As to conditions: aptamer strand: ATP DNA aptamer (quencher-CACCTGGGGGAGTATTGCGGAGGAAGG + anchor), 100 nM annealed; ATP concentration: 500 uM; one replicate. The gist of the method: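 The quencher-labelled ATP aptamer, at 100 nM, was annealed to Cy3-labelled switching-strand clusters on a modified Illumina MiSeq flow-cell. The clusters were imaged in selection buffer, then after 15 min with 500 uM ATP at 22 °C, and this buffer/ATP cycle ran five times with NaOH stripping and re-annealing between runs. Per-cluster fluorescence ratios, summed target-cycle over summed buffer-cycle Cy3 intensity, were averaged per switch-domain sequence. Clusters outside 100-1000 RFU were excluded.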

Sequences with one replicate were seen in a single cluster, so their values are uncertain.
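Also: ATP exposure 15 min at 22 °C before imaging.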

Consider GAATATGTCA, for which the switch fluorescence ratio was determined as 0.946. Next, GGTGCGTGTT: 1.07; ATTGGGCCAC: 0.982.

With ATCGCATGCG, the switch fluorescence ratio was found to be 0.974. For CGTACAAATA the value was 1.03; for GAATCAGGAA, 1. For TAATGTGGC the value was 1.01. For ACCACCACAG the value was 1.28; for GAGTAGG, 1.01; for CGTAAGTGCT, 0.999. In the case of TGTCCAAGGA, the switch fluorescence ratio amounted to 1.02. As for TTTGTGTTAA, the switch fluorescence ratio turned out to be 1.1. Next, TGGATGTTTT: 0.955; TGTTAGAAA: 0.96.

CGGTGTTCGG: the switch fluorescence ratio was 0.996. As for ATCTGCTCAA, the switch fluorescence ratio came to 1.04. Turning to CCGACTTATG, the switch fluorescence ratio amounted to 1.06. Next, AACCCTAGCG: 1.02; GTCATAAGTC: 1.04.

Take GGTTGAGCT: the switch fluorescence ratio is 0.966. Next, TATTAATATA: 0.992; CACACGGGGT: 1.2; TCATACTCTG: 1.02. Turning to GACGGTCGGA, the switch fluorescence ratio was determined as 1.05.

Take ACCATAGACT: the switch fluorescence ratio worked out at 1.07. Next, CAACCCCAGA: 1.22; ATTATTTCTC: 0.971; CAGTAGCGA: 5.22. Consider AATCTTGGCA, for which the switch fluorescence ratio is 1.05.

As for CAAAGGAGGA, the switch fluorescence ratio turned out to be 1.04.

ATAATTGCTG: the switch fluorescence ratio stood at 0.932. For CAGTTGTAAC the value was 1.03; for GACGTACGGT, 1.53; for GGTGGAGATG, 0.979.

For the sequence GCGACTTGCA, the switch fluorescence ratio amounted to 1.04. Next, TGATTATGTG: 0.962; GGTAATTACG: 1.06.

Regarding GATAGACAGA, the switch fluorescence ratio is 1.03. Consider CTGAAGACT, for which the switch fluorescence ratio amounted to 0.977.

As for CTCTCCCTGT, the switch fluorescence ratio was found to be 1.37. Next, GAGTAATCTG: 1.02; GTAATCCCTC: 1.01. Consider CTGTGGAGGA, for which the switch fluorescence ratio came out at 1. Next, TGCATCATAC: 3.07; CTCAGGACTT: 1.04; CATGATCTGT: 1.02.

For AAAATAATGT, the switch fluorescence ratio came to 0.95.

Regarding GGAATTTACT, the switch fluorescence ratio was 1.03.

For the sequence CGCGAGTTTG, the switch fluorescence ratio was found to be 1. Consider TGCGGTGCTC, for which the switch fluorescence ratio turned out to be 1.13. Turning to AATGATATTT, the switch fluorescence ratio came to 1.02. Next, GCGCAAGAG: 3.33; TGGCTTTGGG: 1.04. Next, TAATGTAGGC: 0.935. As to GTACAAGGGA, the switch fluorescence ratio turned out to be 0.986. Regarding ACGGAGAAGT, the switch fluorescence ratio worked out at 1.1.

As to CAGATACTA, the switch fluorescence ratio worked out at 1.01. For GGGATTGCCA the value was 0.998; for AGTACGTTAA, 1.21.

Regarding CTCTTGACTT, the switch fluorescence ratio stood at 1.01. Next, CATGAGGCAT: 1.04; CAAAGTTATG: 0.988. For CAAGGTGACG the value was 0.991; for ACTGCGTAAG, 1.03; for GGGAGGACAC, 1.01. On to GAGATACAGT, for which the switch fluorescence ratio is 1.03.

Take CTGGAGGCTA: the switch fluorescence ratio worked out at 1.28.
